Experimental data taken from the BET-seq Pho4 binding data (Le et al. 2018).
This is one part of the list. Values were computed here from the reads of four pooled replicates and scatter widely.

Biological target: T1, Pho4 (S. cerevisiae) (UniProt P07270)
T1 sequence: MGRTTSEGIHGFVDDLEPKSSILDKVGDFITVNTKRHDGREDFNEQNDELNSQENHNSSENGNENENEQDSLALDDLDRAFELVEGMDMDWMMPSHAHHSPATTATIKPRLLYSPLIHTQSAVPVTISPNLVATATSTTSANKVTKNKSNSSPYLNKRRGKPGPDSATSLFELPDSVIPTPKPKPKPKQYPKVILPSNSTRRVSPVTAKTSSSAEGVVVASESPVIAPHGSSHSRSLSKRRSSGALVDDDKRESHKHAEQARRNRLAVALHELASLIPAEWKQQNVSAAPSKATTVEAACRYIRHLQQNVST
Assay: relative binding free energy (BET-seq); higher = weaker binding
Conditions: reference: library average

Sequence	relative binding free energy [kcal/mol]
ACGGGCACGTGGGGCG	-0.33
GTCTGCACGTGTTGGC	0.07
AGTTCCACGTGGTTGA	0.13
GGTGGCACGTGTTAAG	0.04
GTTCTCACGTGGGGAT	0.18
GGGATCACGTGTGTCT	0.29
CTTCGCACGTGGGGGA	-0.21
CTGGTCACGTGCGGGG	0.08
TCGTGCACGTGCATGG	-0.16
CGGTCCACGTGGGGGT	-0.24
TATTTCACGTGCGGCT	0.34
AGCGGCACGTGAAATG	0.1
GGATCCACGTGAGTTT	0.4
CTTGTCACGTGTGTTT	0.19
TGGGGCACGTGTGTCC	-0.09
GTTTTCACGTGTTTCA	0.3
TTAGACACGTGTGTCT	0.03
TAGATCACGTGGTAGT	0.15
CAGATCACGTGGGTGT	-0.09
CGTGTCACGTGCTGTT	-0.16
TTTATCACGTGTTGTA	0.17
TCGGCCACGTGAGTTG	0.19
GTGTACACGTGGATGT	-0.04
TGTAGCACGTGGTAAA	-0.15
ATGAGCACGTGGATAG	-0.03
GGGCTCACGTGTTATG	0.28

Sequence	relative binding free energy [kcal/mol]
TGTTGCACGTGCATAG	-0.2
TTGTGCACGTGATTAC	0.08
TCGTTCACGTGTGCGC	0.28
TTTTTCACGTGGTATG	0.25
TTAAACACGTGGATTT	0.04
TGTATCACGTGAGTGT	0.28
GCTAGCACGTGGTAGT	-0.1
GATTGCACGTGGGTAG	-0.04
CGTTACACGTGGTTTA	0.1
CGATTCACGTGTAATG	0.29
CGGTGCACGTGTTAGT	-0.16
GCGTACACGTGTATGA	0.22
GTTTCCACGTGTTAGT	0
ACGGGCACGTGTGTGC	-0.12
GGCGACACGTGGGTGC	-0.07
GTATTCACGTGTAGAA	0.3
TTCGGCACGTGTGGGT	-0.04
AGCGACACGTGGAGGG	0.08
GATAGCACGTGTTAAG	0.11
ATAGGCACGTGTAAGA	0.05
TGCGGCACGTGTTGAA	-0.13
GTAATCACGTGAGGAG	0.42
ATTTTCACGTGTAAAG	0.3
TGAGTCACGTGCGTTA	0
TATGGCACGTGAATAT	0.08
GGTTTCACGTGTATCG	0.41

Sequence	relative binding free energy [kcal/mol]
ACTGACACGTGTTTGG	0.07
GGCGTCACGTGGGGGC	-0.03
GTGTGCACGTGTATCT	0.03
AGAGGCACGTGTGATT	0.01
CGAGTCACGTGGGGTT	0.01
GTTGGCACGTGGGTAC	-0.21
CGGTCCACGTGTGGTT	0.08
CGATTCACGTGGGTCG	0.24
TTTGTCACGTGCGACG	0.06
GGGGTCACGTGAAAGC	0.39
TTTAGCACGTGTGTGC	-0.12
CGGTTCACGTGAGGCA	0.49
TGGCGCACGTGAGGGA	0.21
AGGTCCACGTGGTGGA	0.03
AGGTTCACGTGTCTAG	0.33
GTATACACGTGAAAGT	0.31
GTGATCACGTGCAGGG	0.17
AGGTTCACGTGCTTAG	0.24
ACGTGCACGTGCATGG	0
TAATACACGTGTGGGT	0.18
GTTTTCACGTGGTGTC	0.28
ATGGCCACGTGGGTCT	-0.04
ACGTGCACGTGGGGGT	-0.24
CGGTTCACGTGCTTGT	0.14
CTGTACACGTGGCGTG	0.03
AGAGCCACGTGTGAGT	0.06

Sequence	relative binding free energy [kcal/mol]
GTTGACACGTGTCAGG	0.12
ATAGTCACGTGATGTG	0.21
GGCGACACGTGGTAGG	0.16
CGGTTCACGTGGCAGT	0.22
TGTCTCACGTGTTCGT	0.23
GTGGGCACGTGTACGT	0.02
ATGTGCACGTGTTTTT	0.07
AGCTGCACGTGTAGAG	-0.06
ATCGTCACGTGTTGTG	0.1
TAGTGCACGTGTTTTA	-0.04
ATGAGCACGTGGTAGG	-0.14
TGTTCCACGTGGTACT	-0.01
AGGTTCACGTGGTTTA	0.31
AGGAACACGTGTAGTA	0.04
AATGTCACGTGAGGGC	0.3
TAATGCACGTGATTAG	0.18
GCGTTCACGTGGAGTT	0.27
TTTATCACGTGTTGTG	0.06
AGTGTCACGTGAAAGC	0.34
TATTACACGTGAGATG	0.37
AGTTTCACGTGACTGT	0.35
AGGCTCACGTGTGGGT	0.22
AGAGTCACGTGTCAGG	0.25
CAAGGCACGTGGTAAA	0.1
GAGGACACGTGTGAGT	0.14
ATTTGCACGTGGCTTA	-0.07

Sequence	relative binding free energy [kcal/mol]
AGAACCACGTGGGTGG	-0.26
CGGAACACGTGGGGAT	-0.01
ATTATCACGTGGGTCT	-0.13
TGCTCCACGTGTGTGT	-0.07
TAGTTCACGTGGCTGG	0.31
ATTAACACGTGGCGTT	-0.15
TTGTTCACGTGTTACG	0.39
TAAGACACGTGAGGGA	0.19
GCTTGCACGTGGATTT	0.14
TAGGGCACGTGAACGT	0.06
TTATACACGTGAAGGT	0.26
CTCGGCACGTGGGAGG	-0.26
AGTATCACGTGTCTAG	0.19
GGGTGCACGTGATTGT	0.14
GAGTGCACGTGTTATT	0.05
TAGGTCACGTGCTGCT	-0.03
TCGAGCACGTGGGTCG	-0.18
TAAAGCACGTGGTAAG	0.01
CCAAGCACGTGGTGGT	-0.02
TTATCCACGTGTAGGG	0.05
AGCTGCACGTGCTGGT	-0.18
CGTGTCACGTGAACAG	0.51
GGGAGCACGTGCTATG	-0.18
CAGTACACGTGGGGTG	-0.11
TTTTTCACGTGGATGC	0.2
GGTCACACGTGTGAGG	0.15

Sequence	relative binding free energy [kcal/mol]
GGTCGCACGTGGCGTT	-0.24
GGGCGCACGTGAGTAT	0.07
TGGATCACGTGTCGTG	0
GGCTTCACGTGTGAAA	0.44
GATTACACGTGTATGG	0.09
AGCAGCACGTGCGGGT	-0.18
GTTATCACGTGTATAG	0.22
TGCGTCACGTGATTTA	0.29
AGCAGCACGTGACGGG	0.13
GGCGCCACGTGGTTGG	-0.19
TCTGGCACGTGTAAGA	0.05
TGGTTCACGTGTTCTT	0.23
AAGGCCACGTGGTGGG	-0.16
GTTGCCACGTGTGTAG	-0.11
TTTTACACGTGTTACG	0.17
ATGTACACGTGGTGTG	0.02
GATGCCACGTGCGTTT	0.19
GCATGCACGTGGTTTT	-0.04
ATGGTCACGTGTTGAT	0.14
TGGTACACGTGATTAT	0.22
GCGAACACGTGAGGTG	0.17
ATATGCACGTGTCTGG	-0.07
TTTGCCACGTGCTGGA	-0.04
AATGTCACGTGGTGGA	0.04
CTTAGCACGTGTTAAT	-0.03
ATAATCACGTGATAAG	0.31

Sequence	relative binding free energy [kcal/mol]
TTGGGCACGTGATCTG	-0.08
TATGTCACGTGGACAA	0.1
TCGTTCACGTGCTGTG	0.02
ATGGCCACGTGGCGTG	-0.05
AGTTTCACGTGTAATT	0.24
GGTGGCACGTGGTTGC	-0.02
ATATACACGTGTCTTT	0.03
GGGGACACGTGGTCGA	-0.07
ATGGGCACGTGATGGT	-0.04
AGAGACACGTGAGTTG	0.18
ATTGGCACGTGGTATT	-0.27
TTGTACACGTGCTGGT	-0.05
GTCGGCACGTGAGATG	0.22
GTAAGCACGTGTTGAG	0.01
TTGACCACGTGAGGTG	0.2
ACGAGCACGTGGCGGG	-0.21
TTTATCACGTGTGGAG	0.24
CGATGCACGTGGCGGA	-0.05
TTTAACACGTGTTATA	0.04
CTAGGCACGTGGTTTT	-0.11
GATCTCACGTGGGATG	0.18
TGGAGCACGTGGTCGG	-0.21
TACTTCACGTGGGGGT	0.06
TATTGCACGTGGATCG	0.09
CGTGGCACGTGTATAG	-0.06
TCATGCACGTGATGGG	0.09

Sequence	relative binding free energy [kcal/mol]
TGTTCCACGTGTATTT	0
TTAGGCACGTGTGGGA	-0.02
AGTTTCACGTGGGCCT	0.22
CCTGGCACGTGAGTTG	0.19
CGTTTCACGTGTGAAT	0.26
GGTTTCACGTGAATCT	0.44
ATTGGCACGTGTCGTA	-0.11
CGTCTCACGTGGTGGG	0.12
CTTGGCACGTGGAGTC	-0.11
ATGTTCACGTGTGTGG	0.31
GGTGCCACGTGTAGTT	0.03
AGTAGCACGTGTGAAG	0.08
GAGGACACGTGAGAGG	0.36
TGTGACACGTGAATAG	0.15
TGTTGCACGTGATACG	-0.01
TAAATCACGTGGCGGG	-0.02
GATAACACGTGGGTGG	0
TCGAGCACGTGTGAGT	0
AGGATCACGTGTGCTT	0.22
GGTTGCACGTGGACGG	0.05
TGGAACACGTGGGGGT	-0.03
TGTTTCACGTGCGAGG	0.21
TTAATCACGTGAAAAG	0.42
AAGGGCACGTGAGGTA	0.1
TTTCGCACGTGATGAG	0.14
GGTAGCACGTGGGTAG	-0.14

Sequence	relative binding free energy [kcal/mol]
TTAATCACGTGCTGTG	0
GTTGTCACGTGACTGT	0.11
AGCTGCACGTGGGTTG	-0.13
TTAGGCACGTGGTGTT	-0.2
AGGGACACGTGTCGGT	-0.1
TTGGCCACGTGGTGAG	0.04
TGTTGCACGTGGCGGT	-0.11
AGTTACACGTGCATTT	0.13
TATGTCACGTGGGCCA	-0.01
TTGGCCACGTGGTTGT	-0.01
GTCGGCACGTGTGAGT	0.06
AGGTACACGTGTAAGG	0.03
ACGGTCACGTGAGGGA	0.28
TAATGCACGTGGTAGC	-0.03
TAAGACACGTGTGGCG	0
TTCTGCACGTGTGTCT	0.06
TGGGTCACGTGGCTAA	0.01
CTTGTCACGTGTGTTA	0.13
GTCTGCACGTGTATTG	0.11
AGGGGCACGTGCGGGA	-0.16
GTTTGCACGTGAGTTG	0.33
GGTTTCACGTGTCTGG	0.33
